Results from the antibiotic and cytotoxicity screens of Wong et al. (2023).
This is one part of the list.

Tested on: S. aureus RN4220
Assay: growth inhibition call (relative growth <= 0.2)
Settings: 50 µM

Growth inhibition call, inactive:
COc1ccc(NC(=O)Nc2ccc3c(c2)C(=O)N([C@H](C)CO)C[C@@H](C)[C@H](CN(C)Cc2ccc(C(F)(F)F)cc2)OCCCC[C@@H](C)O3)cc1
C[C@H](CO)N1C[C@H](C)[C@H](CN(C)C(=O)c2ccccn2)Oc2cc(C#Cc3ccc(F)cc3)ccc2S1(=O)=O
C[C@@H]1CN([C@H](C)CO)C(=O)c2cccc(NS(=O)(=O)c3ccc(F)cc3)c2O[C@@H]1CN(C)C(=O)Nc1ccc(C(F)(F)F)cc1
COc1ccc(S(=O)(=O)N(C)C[C@H]2Oc3c(NC(=O)Nc4cccc5ccccc45)cccc3C(=O)N([C@@H](C)CO)C[C@H]2C)cc1
C[C@@H]1CN([C@@H](C)CO)C(=O)c2cc(NS(=O)(=O)c3cn(C)cn3)ccc2O[C@@H]1CN(C)S(=O)(=O)c1cn(C)cn1
CCN1CCCC[C@@H]1C(=O)O
CCC(=O)N1C[C@]2(CN(C2)S(=O)(=O)C)c2c(n(c3cc(ccc23)OC)C)[C@@H]1CO
C[C@H]1CCCCO[C@@H](CN(C)Cc2ccccc2)[C@@H](C)CN([C@@H](C)CO)C(=O)c2cc(NC(=O)Nc3ccc4c(c3)OCO4)ccc2O1
C[C@@H]1CCCCO[C@@H](CN(C)C(=O)Nc2ccc(C(F)(F)F)cc2)[C@H](C)CN([C@H](C)CO)C(=O)c2cc(NS(=O)(=O)c3ccccc3)ccc2O1
COc1ccc(S(=O)(=O)Nc2ccc3c(c2)C(=O)N([C@H](C)CO)C[C@H](C)[C@@H](CN(C)S(=O)(=O)c2ccc(F)cc2)O3)cc1
C[C@@H]1C[C@H]1C(=O)O
